No constants are given. Whether binding was seen depends on the method and setting. Binding seen in cells or lysates may run through a third protein. Some binding calls cover weakened binding; strength is not graded here.

Sequences of proteins named here, by UniProt entry; tags and fusion partners are left off.
UniProt Q15561: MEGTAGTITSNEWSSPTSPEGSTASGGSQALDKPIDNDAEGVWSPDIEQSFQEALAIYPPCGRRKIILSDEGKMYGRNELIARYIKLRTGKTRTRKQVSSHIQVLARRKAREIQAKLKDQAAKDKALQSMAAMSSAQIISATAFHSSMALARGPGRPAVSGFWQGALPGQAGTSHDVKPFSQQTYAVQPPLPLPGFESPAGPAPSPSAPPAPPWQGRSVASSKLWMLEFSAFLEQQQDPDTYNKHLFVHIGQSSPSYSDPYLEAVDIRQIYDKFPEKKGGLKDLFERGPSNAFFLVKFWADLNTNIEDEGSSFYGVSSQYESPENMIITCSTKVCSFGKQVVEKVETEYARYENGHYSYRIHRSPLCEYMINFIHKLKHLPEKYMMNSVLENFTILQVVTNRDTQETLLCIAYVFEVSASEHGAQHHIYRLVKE
UniProt P23771: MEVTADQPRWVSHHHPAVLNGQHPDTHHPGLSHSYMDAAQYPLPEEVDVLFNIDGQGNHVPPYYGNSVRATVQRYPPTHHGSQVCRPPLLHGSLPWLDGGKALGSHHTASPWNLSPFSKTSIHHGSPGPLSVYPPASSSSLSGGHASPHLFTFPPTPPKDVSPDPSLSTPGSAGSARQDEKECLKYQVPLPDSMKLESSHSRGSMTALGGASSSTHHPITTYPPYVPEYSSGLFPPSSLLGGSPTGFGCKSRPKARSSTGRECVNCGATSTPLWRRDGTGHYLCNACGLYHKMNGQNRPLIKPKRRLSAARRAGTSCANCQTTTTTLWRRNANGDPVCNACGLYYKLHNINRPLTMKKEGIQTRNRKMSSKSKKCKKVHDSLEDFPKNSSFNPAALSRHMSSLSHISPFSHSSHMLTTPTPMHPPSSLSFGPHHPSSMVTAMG
UniProt Q92754: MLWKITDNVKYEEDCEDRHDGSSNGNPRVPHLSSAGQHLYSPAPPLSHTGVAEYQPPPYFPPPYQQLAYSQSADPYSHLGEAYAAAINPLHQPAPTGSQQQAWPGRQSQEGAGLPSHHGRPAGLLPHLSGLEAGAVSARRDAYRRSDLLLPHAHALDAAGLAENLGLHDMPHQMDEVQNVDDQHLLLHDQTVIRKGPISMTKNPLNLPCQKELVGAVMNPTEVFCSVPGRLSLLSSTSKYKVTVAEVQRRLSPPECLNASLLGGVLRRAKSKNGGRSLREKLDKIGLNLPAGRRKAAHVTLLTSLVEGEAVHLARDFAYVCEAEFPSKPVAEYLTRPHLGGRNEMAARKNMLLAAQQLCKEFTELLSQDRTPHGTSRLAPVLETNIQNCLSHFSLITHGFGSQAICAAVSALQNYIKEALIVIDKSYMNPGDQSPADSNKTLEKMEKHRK
UniProt Q9GZV5: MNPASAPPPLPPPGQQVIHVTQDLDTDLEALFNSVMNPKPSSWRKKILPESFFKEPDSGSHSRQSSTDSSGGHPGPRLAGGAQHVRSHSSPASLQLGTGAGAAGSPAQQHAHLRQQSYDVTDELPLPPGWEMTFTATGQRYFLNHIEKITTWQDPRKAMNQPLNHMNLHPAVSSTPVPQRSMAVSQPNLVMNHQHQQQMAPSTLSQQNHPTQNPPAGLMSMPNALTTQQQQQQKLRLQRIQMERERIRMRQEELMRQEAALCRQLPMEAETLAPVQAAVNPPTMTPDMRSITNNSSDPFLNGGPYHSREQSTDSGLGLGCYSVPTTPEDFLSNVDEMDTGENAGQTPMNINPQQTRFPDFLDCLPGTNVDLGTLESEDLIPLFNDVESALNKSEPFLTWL
UniProt P46937: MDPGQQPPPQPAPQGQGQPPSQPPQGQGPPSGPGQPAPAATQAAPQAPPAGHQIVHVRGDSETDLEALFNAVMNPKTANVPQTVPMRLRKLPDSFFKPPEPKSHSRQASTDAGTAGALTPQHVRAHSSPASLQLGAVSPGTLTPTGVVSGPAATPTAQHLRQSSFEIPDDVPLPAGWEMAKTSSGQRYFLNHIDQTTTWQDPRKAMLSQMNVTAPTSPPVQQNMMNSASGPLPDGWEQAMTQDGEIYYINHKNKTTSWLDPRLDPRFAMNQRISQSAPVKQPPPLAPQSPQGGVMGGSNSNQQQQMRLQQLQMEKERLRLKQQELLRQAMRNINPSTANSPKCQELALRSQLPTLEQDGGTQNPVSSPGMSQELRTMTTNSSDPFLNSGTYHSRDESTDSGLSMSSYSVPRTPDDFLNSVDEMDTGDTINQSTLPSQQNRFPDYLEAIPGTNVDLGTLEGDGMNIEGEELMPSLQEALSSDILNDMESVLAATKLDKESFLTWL

Assay [1] deals with TEAD4 (TEA domain transcription factor 4) (human (endogenous in TELC-D5 cells and TSCs derived from H9 ESCs and UH10 iPSCs)) (UniProt Q15561). Briefly: co-IP; endogenous proteins in lysates of TELC-D5 cells (day 5 of TELC induction from 4CL H9 ESCs and UH10 iPSCs); TNE lysis buffer (50 mM Tris-HCl pH 7.5, 250 mM NaCl, 0.5% NP-40, 1 mM EDTA) diluted with the same volume of TNEG buffer; primary antibody overnight at 4 °C, protein A/G magnetic beads 3 h at 4 °C; Western blotting. For orientation: Immunoblotting shows a protein as a band on a membrane.

For assay [2], the target named is T1, VGLL1 (vestigial-like family member 1) (human (endogenous in TELC-D5 cells and TSCs derived from H9 ESCs and UH10 iPSCs)) (UniProt Q99990).
T1 sequence: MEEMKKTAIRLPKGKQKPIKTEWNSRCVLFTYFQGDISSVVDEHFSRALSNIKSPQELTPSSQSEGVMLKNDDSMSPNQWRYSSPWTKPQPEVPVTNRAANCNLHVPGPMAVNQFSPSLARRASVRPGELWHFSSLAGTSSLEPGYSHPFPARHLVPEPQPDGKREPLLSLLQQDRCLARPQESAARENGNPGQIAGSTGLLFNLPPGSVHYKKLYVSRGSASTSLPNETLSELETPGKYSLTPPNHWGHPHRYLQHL
Described as above.

In assay [3] the target is TEAD4 (TEA domain transcription factor 4) (human (endogenous in TELC-D5 cells and TSCs derived from H9 ESCs and UH10 iPSCs)) (UniProt Q15561). Nature of the assay: co-IP; endogenous proteins in lysates of TSCs derived from H9 ESCs and UH10 iPSCs; TNE lysis buffer (50 mM Tris-HCl pH 7.5, 250 mM NaCl, 0.5% NP-40, 1 mM EDTA) diluted with the same volume of TNEG buffer; primary antibody overnight at 4 °C, protein A/G magnetic beads 3 h at 4 °C; Western blotting.

Assay [4] shares this target. Briefly: co-IP; endogenous proteins in lysates of TELC-D5 cells (day 5 of TELC induction from 4CL H9 ESCs and UH10 iPSCs); TNE lysis buffer (50 mM Tris-HCl pH 7.5, 250 mM NaCl, 0.5% NP-40, 1 mM EDTA) diluted with the same volume of TNEG buffer; primary antibody overnight at 4 °C, protein A/G magnetic beads 3 h at 4 °C; Western blotting. The source holds these as a separate data set.

In the case of GATA3 (from UniProt P23771 1-443), the binding entry in assay [1] and in assay [2] was “binds” throughout.
For the molecule TFAP2C (from UniProt Q92754 1-450), the binding entry in assay [1] and in assay [2] was “binds” throughout.
As for WWTR1 (from UniProt Q9GZV5 1-400), the binding result in assay [3] is given as “binds”; in assay [1], “binds”; in assay [2], “no binding”.
As for YAP (from UniProt P46937 1-504), the binding result in assay [2] is on record as “no binding”.

B1: VGLL1 (vestigial-like family member 1) (protein, UniProt Q99990 1-258)
chain: T1 sequence
As for B1, the binding entry in assay [3] and in assay [4] was “binds” each time.

These data come from paper PMC10794710.
